Experimental data from patent US20100015650.

Tested on: BRB1 tyrosine kinase substrate peptide
Sequence (chain, as listed by the source): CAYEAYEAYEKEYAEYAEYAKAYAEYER

JAK1 (sequence left out)
Signal to Noise Ratio with BRB1 Peptide (TR-FRET kinase assay; kinase 7 nM): 13.7

EGFR (sequence left out)
Signal to Noise ratio with BRB1 Peptide (TR-FRET kinase assay; kinase 0.5 nM): 10

FGFR1 (sequence left out)
Signal to Noise ratio with BRB1 Peptide (TR-FRET kinase assay; kinase 0.5 nM): 26.4

KDR (sequence left out)
Signal to Noise ratio with BRB1 Peptide (TR-FRET kinase assay; kinase 0.25 nM): 16.9
